# Assay results published in PubChem BioAssay AID588453 (National Center for Advancing Translational Sciences (NCATS), 2011).
# Hit rate of the full screen: of about 390,000 compounds, about 4,000 (1%) were called active. The inconclusive results got no clear call from the source; some entries with a clear call stand among them for comparison. Calls come from the whole dose curve; as a rule, active = well fitted inhibition curve with a large enough effect; inconclusive = small, poorly fitted or top-dose-only effect; inactive = no such curve, though single readings can be large or run the other way. Potencies beside an inconclusive call are fits to weak or partial responses and may not hold up.
# Target: Thioredoxin reductase 1, cytoplasmic (Rattus norvegicus) (UniProt O89049)
# UniProt O89049, sequence (O89049 whole entry, looked up): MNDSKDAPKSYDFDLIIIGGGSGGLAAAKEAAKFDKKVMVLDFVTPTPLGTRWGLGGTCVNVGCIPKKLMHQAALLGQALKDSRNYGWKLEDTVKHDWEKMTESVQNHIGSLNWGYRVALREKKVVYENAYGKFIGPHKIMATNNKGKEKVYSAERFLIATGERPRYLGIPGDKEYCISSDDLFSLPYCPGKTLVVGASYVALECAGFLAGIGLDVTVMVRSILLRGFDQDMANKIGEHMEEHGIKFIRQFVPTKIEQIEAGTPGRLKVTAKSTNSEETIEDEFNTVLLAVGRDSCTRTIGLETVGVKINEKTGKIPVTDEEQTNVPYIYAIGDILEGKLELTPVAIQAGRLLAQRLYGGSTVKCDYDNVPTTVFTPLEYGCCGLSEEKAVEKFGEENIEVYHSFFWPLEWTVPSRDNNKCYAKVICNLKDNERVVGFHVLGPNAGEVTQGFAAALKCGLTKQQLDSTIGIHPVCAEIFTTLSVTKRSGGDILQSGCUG
# Assay: qHTS Assay for Inhibitors of Mammalian Selenoprotein Thioredoxin Reductase 1 (TrxR1): qHTS; note: nearly all actives have a fitted effect of over 65% in size
# Conditions: recombinant rTrxR1, NADPH fluorescence consumption, selenite substrate; series mostly up to 114 µM
# In short: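 Rat TrxR1 (90 nM in the dispensed reagent) was pre-reduced with 400 uM NADPH for 5 min at room temperature, then incubated with compound for 15 min. After 400 uM selenite was added, NADPH fluorescence (Ex 340/Em 450 nm) was followed for 8 min.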
# Potency is the fitted concentration of half-maximal effect; tags give direction and shape of the fitted curve.
row,Structure (SMILES),Potency
1,O=c1oc2c(CN3CCN(CCO)CC3)c(O)ccc2cc1-c1ccccn1,active: 44.7 µM
2,COCCNC(=O)c1noc2c1CCc1cc(OC)ccc1-2,"inconclusive: 12.6 µM [inhibitor, partial curve, poor fit]"
3,COc1cccc(NC(=O)CCNC(=O)N2CC(=O)Nc3ccccc32)c1,"inconclusive: 89.1 µM [inhibitor, single point]"
4,O=C(CSc1n[nH]c(-c2cccnc2)n1)Nc1ccccc1[N+](=O)[O-],inactive
5,CC(C)(C)C(=O)CSc1ncnc2c1cnn2Cc1ccccc1,inactive
6,CCOC(=O)C1(Cc2ccccc2C)CCCN(C(=O)c2sccc2C)C1 (centres undefined),inactive
7,CC(C)Cn1c(N)c(C(=O)COC(=O)CC23CC4CC(CC(C4)C2)C3)c(=O)n(C)c1=O,inactive
8,C#CCOCCOCCOCCNc1nc(N2CCN(C(=O)[C@H](CCCCN)n3cc([C@@H](N)C(C)CC)nn3)CC2)nc(N2CCN(C(=O)[C@H](Cc3ccc(O)cc3)n3cc([C@@H](N)C(C)CC)nn3)CC2)n1 (some centres undefined),"inconclusive: 79.4 µM [inhibitor, single point]"
9,CC(C)(C)NS(=O)(=O)c1ccc2[nH]c3c(c2c1)CCCCC3,inactive
10,S=C(NN=C1CCCCCC1)Nc1ccc(Cl)cc1,"inconclusive: 5.62 µM [inhibitor, full curve]"
11,Cc1cccn2cc(-c3ccc(S(=O)(=O)N4CCCCC4)cc3)nc12,"inconclusive: 89.1 µM [inhibitor, single point]"
12,CCC(=O)NC1=C(Cl)C(=O)C(NC(=O)CC)=C(Cl)C1=O,"inconclusive: 2.51 µM [inhibitor, full curve, poor fit]"
13,Cc1ccc(N2C(=O)Cc3ccccc3C2=O)cc1,"inconclusive: 22.4 µM [inhibitor, full curve]"
14,CCCCN(C(=O)c1c(CC)noc1C)c1c(N)n(CCCC)c(=O)[nH]c1=O,inactive
15,CC(C)CC(=O)Nc1ccc(C(=O)CN2CCN(c3ccc(O)cc3)CC2)cc1,"inconclusive: 39.8 µM [inhibitor, partial curve]"
16,Cc1nn(CC(=O)NNC(=S)Nc2ccccc2)c(C)c1[N+](=O)[O-],"inconclusive: 14.1 µM [inhibitor, partial curve, poor fit]"
17,N#C/C(=N\Nc1ccccc1[N+](=O)[O-])C(=N)N1CCCCC1,"inconclusive: 89.1 µM [inhibitor, partial curve, poor fit]"
18,COc1ccccc1S(=O)(=O)Cc1ccc(C(=O)N2CCCC2)o1,"inconclusive: 50.1 µM [inhibitor, partial curve]"
19,COc1ccc(NC(=O)CCNS(=O)(=O)c2ccc(Cl)c([N+](=O)[O-])c2)cc1S(N)(=O)=O,"inconclusive: 25.1 µM [inhibitor, full curve, poor fit]"
